Experimental data taken from PubChem BioAssay AID504832 (National Center for Advancing Translational Sciences (NCATS), 2011).
Among all 310,000 compounds or so, about 18,000 (5.8%) were called active. This list was built around the results that the source calls inconclusive (neither active nor inactive); the mix of calls is not that of the screen. Calls come from the whole dose curve; as a rule, active = well fitted inhibition curve with a large enough effect; inconclusive = small, poorly fitted or top-dose-only effect, or another doubt; inactive = no such curve, though single readings can be large or run the other way. No potency is given beside an inconclusive call; the fits are too rough.

Assay: Primary qHTS for delayed death inhibitors of the malarial parasite plastid, 48 hour incubation
Conditions: P. falciparum luciferase growth in erythrocytes; series mostly up to 28.7 µM
Method in brief: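 Firefly luciferase activity from engineered P. falciparum reports growth; inhibitors lower the luminescent signal. Cultures contained 2% hematocrit erythrocytes at 0.1% final parasitemia.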
Potency is the fitted concentration of half-maximal effect; tags give direction and shape of the fitted curve.

SMILES | Potency
CC(C1CCN(Cc2cn(C)nc2-c2cccc(Cl)c2)CC1)N1CCOCC1 (stereo not drawn) | inconclusive [inhibitor, partial curve, poor fit]
CCOC(=O)c1c(C)nc2sc3c(=O)[nH]cnc3c2c1-c1ccc(OC)cc1 | inconclusive [inhibitor, single point]
COc1ccc2sc(-c3ccccc3OC)c(-c3ccc(O)cc3)c2c1 | inconclusive [inhibitor, partial curve]
O=C(NCC1CCCN1S(=O)(=O)c1cccs1)c1ccc(F)cc1 (stereo not drawn) | inconclusive [inhibitor, single point]
O=C(Nc1cc([N+](=O)[O-])ccc1Cl)c1ccc2c(c1)OCO2 | inactive
O=C(c1ccccc1NS(=O)(=O)c1ccccc1[N+](=O)[O-])N1CCCC1 | inactive
CCN(CC)C(=O)CSc1ncccc1-c1nc2ccccc2[nH]1 | inactive
CN(C)CCn1c2c(c(SCC(=O)NCc3ccccc3)nc1=O)CCC2 | inactive
CCOC(=O)C1CCN(S(=O)(=O)c2c(C)[nH]c(=O)[nH]c2=O)CC1 | inconclusive [inhibitor, single point]
CC(Oc1ccc2ccccc2c1)C(=O)NNC(=O)Nc1ccccc1 (stereo not drawn) | inactive
COc1ccc(Cl)c2sc(N3CCN(C(C)=O)CC3)nc12 | inactive
CC1SCC(=O)N(CC(=O)Nc2ccc3c(c2)OCO3)C1=O (stereo not drawn) | inactive
Cc1ccc(C)c(NC(=O)COC(=O)Cn2c(C)csc2=O)c1 | inactive
Cc1ccc(OCCCn2ccnc2)cc1C | inconclusive [inhibitor, single point]
CCOC(=O)N1CCC(NC(=O)c2cccs2)CC1 | inactive
CCN1CCN(c2ccc(S(=O)(=O)N3CCCCC3)cc2NC(=O)c2ccc(F)cc2)CC1 | inconclusive [inhibitor, partial curve]
COc1ccc(Cc2nnc(SCC(=O)c3ccc4c(c3)OCO4)o2)cc1 | inconclusive [inhibitor, single point]
Cc1cc(C)c(S(=O)(=O)NCC(c2ccco2)N2CCc3ccccc3C2)c(C)c1 (stereo not drawn) | active: 9.28 µM
COCCCNc1ccc([N+](=O)[O-])cc1C(=O)Nc1cccc(C)n1 | inconclusive [inhibitor, partial curve]
O=C(NC1CCCCC1)c1cc(-c2ccco2)on1 | inactive
Cc1ccc(C(=O)Nc2ccc(Cc3ccncc3)cc2)cc1[N+](=O)[O-] | inconclusive [inhibitor, single point]
CCOC(=O)c1c(C)[nH]c(C)c1S(=O)(=O)N(C)CC(=O)Nc1ccccc1OC | active: 10.4 µM
O=C(NNC1=C(C(=O)C(F)(F)F)CCC1)c1ccc(Cl)cc1 | inactive
Cc1cc([N+](=O)[O-])ccc1NC(=O)CCC(=O)N1CCCC1 | inactive

SMILES | Potency
C[N+]1(CCC(=O)c2ccccc2)CCCCC1 | inconclusive [inhibitor, partial curve, poor fit]
COc1cc(OC)cc(C(=O)NC(=S)N(Cc2ccccc2)C(C)C)c1 | inconclusive [inhibitor, single point]
CCc1ccc(-n2c(Cc3ccccc3)n[nH]c2=S)cc1 | inactive
COc1ccccc1CCC(=O)Nc1cc(S(=O)(=O)N2CCOCC2)ccc1N1CCCC1 | inconclusive [inhibitor, partial curve, poor fit]
COc1ccc(Cl)cc1NC(=O)C1CCCN(c2cc(C)nc3ncnn23)C1 (stereo not drawn) | inconclusive [inhibitor, partial curve]
COc1ccc(NS(=O)(=O)c2ccc(SC)cc2)cc1 | inactive
COc1ccc(F)cc1S(=O)(=O)NCC(c1ccc2c(c1)OCO2)N1CCN(C)CC1 (stereo not drawn) | inactive
Oc1ccc(C2Nc3cccc4cccc(c34)N2)cc1 | inconclusive [inhibitor, partial curve]
CCCCn1c(=O)[nH]c(=O)c2c1nc(COc1ccc(C#N)cc1)n2CCC | inconclusive [inhibitor, partial curve]
O=C(NCC1COc2ccccc2O1)c1ccc(NC(=O)C(c2ccccc2)c2ccccc2)cc1 (stereo not drawn) | active: 9.28 µM
Nc1sc(-c2ccccc2)n[n+]1Cc1cccc2cccnc12 | inconclusive [inhibitor, single point]
CC1(OC(=O)C2CCCC2)C(=O)C=C2C=C(c3ccsc3)N(Cc3ccco3)C=C2C1=O (stereo not drawn) | active: 11.7 µM
COc1ccc(C2CC(=O)c3cnc(Nc4cc(C)cc(C)c4)nc3C2)cc1 (stereo not drawn) | inconclusive [inhibitor, partial curve, poor fit]
Brc1ccc2nc(N3CCN(c4ccccc4)CC3)sc2c1 | inactive
CCCCC(c1nnnn1Cc1ccco1)N1CCN(c2nc3ccccc3s2)CC1 (stereo not drawn) | active: 9.28 µM
CCOc1ccc(NC(=O)C/C(C)=N/NC(=O)Cc2ccc(Cl)cc2)cc1 | inactive
O=[N+]([O-])c1cccc(C2Nc3cccc4cccc(c34)N2)c1 | active: 4.15 µM
CCN(CC)C(=S)SCc1csc(CC(=O)Nc2ccccc2C)n1 | inconclusive [inhibitor, partial curve]
CCCCCCCCCCOC(=O)Cn1c(COc2cccc(C)c2)[n+](C)c2ccccc21 | inconclusive [inhibitor, single point]
CCCNC(=O)c1onc(CSc2ccc(F)cc2)c1C(=O)NC(C)C | active: 9.28 µM
COc1cccc(NC(=O)CSc2nnc(-c3cc(C)n(-c4ccccc4)c3C)o2)c1 | inactive
CC[C@@]12C(=O)N(c3ccc(C)cc3)C(=O)N1[C@H](c1ccc(OC)cc1)[C@@H]1C(=O)N(C(C)(C)C)C(=O)[C@@H]12 | inconclusive [inhibitor, full curve, poor fit]
CCCCCNC(=O)CN(c1ccc2c(c1)OCO2)S(C)(=O)=O | inconclusive [inhibitor, partial curve]
NC(N)=N/N=C/c1ccc(Cl)c([N+](=O)[O-])c1 | active: 1.47 µM
